{"source": "PubChem BioAssay (Tox21)", "key": {"[1]": {"test": "A CellTox Green Cytotoxicity Assay to monitor cytotoxicity in HEK293 cells - 40 hour (AID 1224871); further: nearly all actives have a fitted effect of over 45% in size; on cytotoxicity increase: on the % scale 0 is the no-effect control and ±100 the full control effect", "procedure,_shortened": "(§1)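 Real-time, in one plate: 600 HEK293 cells/well with dead-cell DNA dye, pinned compound after 5 h, 37 C incubation over 40 h; viable cells give no appreciable fluorescence.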"}, "[2]": {"test": "qHTS RealTime-Glo MT Cell Viability Assay in HEK293 cells - 16 hour (AID 1224872)", "procedure,_shortened": "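HEK293 cells seeded with NanoLuc/prosubstrate reagent, rested 5 h at 37 C, then dosed and kept at 37 C up to 40 h. Nonlytic real-time luminescence from viable cells read at 0, 8, 16, 24, 32 and 40 h.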"}, "[3]": {"test": "qHTS RealTime-Glo MT Cell Viability Assay in HepG2 cells - 8 hour (AID 1224873)", "procedure,_shortened": "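HepG2 cells (600/well) mixed with RealTime-Glo MT reagent, settled 5 h at 37 C/5% CO2 before compound addition. Nonlytic NanoLuc luminescence from viable-cell prosubstrate reduction read repeatedly during 40 h treatment at 37 C.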"}, "[4]": {"test": "qHTS RealTime-Glo MT Cell Viability Assay in HEK293 cells - 40 hour (AID 1224874)", "details": "RealTime-Glo luminescence; max response: active compounds read low", "procedure,_shortened": "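Kinetic, non-lysing viability readout. Seed HEK293 (600/well) with reagent, incubate 5 h at 37 C/5% CO2, pin 23 nL compound in DMSO, incubate at 37 C, read luminescence at 0, 8, 16, 24, 32, 40 h.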"}, "[5]": {"test": "A CellTox Green Cytotoxicity Assay to monitor cytotoxicity in HEK293 cells - 24 hour (AID 1224875)", "procedure,_shortened": "as §1"}, "[6]": {"test": "A CellTox Green Cytotoxicity Assay to monitor cytotoxicity in HepG2 cells - 40 hour (AID 1224879)", "procedure,_shortened": "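Cytotoxicity was tracked as dead-cell DNA fluorescence in HepG2 cells treated with test compounds at 37 C; each time-point value comes from one kinetic series spanning 0, 8, 16, 24, 32 and 40 h.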"}}, "note": "Several values for one entry are separate records, joined by “and”; a condition that tells them apart may be missing. Equal values may be shown once. The inconclusive results got no clear call from the source; some entries with a clear call stand among them for comparison. A potency beside an inconclusive call is a rough fit, not a confirmed value. Where a structure was tested more than once in an assay, its records may differ in their call. Activity calls are given as the source filed them. The call rests on the fitted dose curve; in most records, active means well fitted curve in the direction sought with a large enough effect in the repeat runs; inconclusive means weak or mixed curves; inactive means no such curve, though single readings can be large; an effect the other way counts as inactive or inconclusive. Potency means the concentration at half of the fitted maximal effect; tags describe the fitted curve by direction and shape. Wherever activity change, negative = cytotoxicity is given: nearly all actives have a fitted effect of over 50% in size. Wherever activity change, negative = cytotoxicity is given: top concentration of the series differs between compounds; on the % scale 0 is the no-effect control and ±100 the full control effect. Wherever cytotoxicity increase is given: on the % scale 0 is the no-effect control and ±100 the full control effect. Wherever max response is given: nearly all actives have a fitted effect of over 50% in size. Wherever max response is given: on the % scale 0 is the no-effect control and ±100 the full control effect.", "data": [{"smiles": "C[Si](C)O[Si](C)C", "values": [{"measurement": "Potency", "setting": "[1]", "result": "inactive"}]}, {"smiles": "C=C(C)C(=O)OCC", "values": [{"measurement": "Potency", "setting": "[1]", "result": "inactive"}]}, {"smiles": "CCOC(=O)COC(=O)c1cc(Oc2ccc(C(F)(F)F)cc2Cl)ccc1[N+](=O)[O-]", "values": [{"measurement": "Potency", "setting": "[1]", "result": "inconclusive: 54.9 µM [activator, single point]"}, {"measurement": "Potency", "setting": "[2]", "result": "inconclusive: 49 µM [cytotoxic, single point]"}, {"measurement": "Potency", "setting": "[3]", "result": "inconclusive: 43.6 µM [falling, partial curve]"}, {"measurement": "Potency", "setting": "[4]", "result": "inconclusive: 54.9 µM [cytotoxic, single point]"}]}, {"smiles": "CC(=O)OCC(=O)[C@H]1CC[C@H]2[C@@H]3CCC4=CC(=O)CC[C@]4(C)[C@H]3CC[C@]12C", "values": [{"measurement": "Potency", "setting": "[1]", "result": "inconclusive: 30.1 µM [activator, single point]"}, {"measurement": "Potency", "setting": "[2]", "result": "inconclusive: 26.8 µM [cytotoxic, single point]"}, {"measurement": "Potency", "setting": "[4]", "result": "inconclusive: 26.8 µM [cytotoxic, single point]"}]}, {"smiles": "CC1=C(C)S(=O)(=O)CCS1(=O)=O", "values": [{"measurement": "Potency", "setting": "[1]", "result": "inconclusive: 21.9 µM [activator, single point]"}, {"measurement": "Potency", "setting": "[2]", "result": "inconclusive: 21.9 µM [rising, single point]"}, {"measurement": "Potency", "setting": "[4]", "result": "inconclusive: 17.1 µM [rising, partial curve] and inconclusive: 21.9 µM [rising, partial curve]"}]}, {"smiles": "COC(C)(C)CCO", "values": [{"measurement": "Potency", "setting": "[1]", "result": "inactive"}, {"measurement": "Potency", "setting": "[2]", "result": "inactive"}]}, {"smiles": "O=C(Cl)c1cc(Cl)cc(Cl)c1", "values": [{"measurement": "Potency", "setting": "[1]", "result": "inactive"}]}, {"smiles": "CCCCCOC(=O)CCC", "values": [{"measurement": "Potency", "setting": "[1]", "result": "inactive"}]}, {"smiles": "Cc1ccc(S(=O)(=O)N=C=O)cc1", "values": [{"measurement": "Potency", "setting": "[1]", "result": "inactive"}]}, {"smiles": "C=CC(=O)OCC(Br)CBr", "note": "(centres undefined)", "values": [{"measurement": "Potency", "setting": "[1]", "result": "inconclusive: 87.1 µM [activator, single point]"}, {"measurement": "Potency", "setting": "[2]", "result": "inconclusive: 54.9 µM [rising, partial curve]"}, {"measurement": "Potency", "setting": "[4]", "result": "inconclusive: 49 µM [rising, partial curve]"}]}, {"smiles": "CC(C)CC(C)(N)C#N", "note": "(centres undefined)", "values": [{"measurement": "Potency", "setting": "[1]", "result": "inconclusive: 55.6 µM [activator, partial curve, poor fit]"}]}, {"smiles": "O=C(O)C(Cc1cc(I)c(O)c(I)c1)c1ccccc1", "note": "(centres undefined)", "values": [{"measurement": "Potency", "setting": "[1]", "result": "inactive"}]}, {"smiles": "COc1ccnc(CS(=O)c2nc3ccc(OC(F)F)cc3[nH]2)c1OC", "note": "(centres undefined)", "values": [{"measurement": "Potency", "setting": "[1]", "result": "inactive"}]}, {"smiles": "CCCCCCCCCCCc1ccccc1", "values": [{"measurement": "Potency", "setting": "[1]", "result": "inactive"}]}, {"smiles": "CCn1c2ccccc2c2ccccc21", "values": [{"measurement": "Potency", "setting": "[1]", "result": "inconclusive: 24.5 µM [activator, full curve, poor fit]"}, {"measurement": "Potency", "setting": "[2]", "result": "inconclusive: 61.6 µM [cytotoxic, partial curve, poor fit]"}]}, {"smiles": "F[B-](F)(F)F", "values": [{"measurement": "Potency", "setting": "[1]", "result": "inconclusive: 39.5 µM [activator, partial curve, poor fit]"}, {"measurement": "Potency", "setting": "[2]", "result": "inconclusive: 22.2 µM [rising, single point]"}, {"measurement": "Potency", "setting": "[4]", "result": "inconclusive: 62.5 µM [cytotoxic, single point]"}, {"measurement": "Potency", "setting": "[5]", "result": "inconclusive: 21.9 µM [activator, single point]"}]}, {"smiles": "CCC(Cc1ccccc1)(C(=O)c1ccc(N2CCOCC2)cc1)N(C)C", "note": "(centres undefined)", "values": [{"measurement": "Potency", "setting": "[1]", "result": "inconclusive: 61.6 µM [activator, single point]"}, {"measurement": "Potency", "setting": "[2]", "result": "inconclusive: 24.5 µM [cytotoxic, partial curve]"}, {"measurement": "Potency", "setting": "[4]", "result": "inconclusive: 24.5 µM [cytotoxic, partial curve]"}]}, {"smiles": "Nc1cnn([C@@H]2O[C@H](CO)[C@@H](O)[C@H]2O)c(=O)n1", "values": [{"measurement": "Potency", "setting": "[1]", "result": "inactive"}]}, {"smiles": "CC1(C)[C@@H]2CC[C@@]1(C)C(=O)C2", "values": [{"measurement": "Potency", "setting": "[1]", "result": "active: 7.56 µM"}, {"measurement": "Potency", "setting": "[5]", "result": "inconclusive: 8.49 µM [activator, partial curve]"}]}, {"smiles": "O=c1oc2c(O)c(O)cc3c(=O)oc4c(O)c(O)cc1c4c23", "values": [{"measurement": "cytotoxicity increase", "setting": "[1]", "result": "inactive: 16.8% [at 15.8 µM]"}, {"measurement": "activity change, negative = cytotoxicity", "setting": "[2]", "result": "inactive: -3.75% [at 15.8 µM]"}, {"measurement": "Potency", "setting": "[6]", "result": "inconclusive: 11.7 µM [activator, single point]"}]}, {"smiles": "CC1=C2[C@H](/C=C(\\C)C(=O)O)CC[C@@H](C)[C@H]2CC1", "values": [{"measurement": "Potency", "setting": "[1]", "result": "inconclusive: 57 µM [activator, single point]"}, {"measurement": "Potency", "setting": "[4]", "result": "inconclusive: 40.3 µM [cytotoxic, partial curve]"}, {"measurement": "Potency", "setting": "[5]", "result": "inconclusive: 57 µM [activator, single point]"}]}, {"smiles": "O=C(O)c1ccccc1NCCc1ccccc1", "values": [{"measurement": "Potency", "setting": "[1]", "result": "inactive"}, {"measurement": "Potency", "setting": "[3]", "result": "inactive"}]}, {"smiles": "CC/C(=C\\C(=N/O)C(N)=O)C(C)[N+](=O)[O-]", "note": "(centres undefined)", "values": [{"measurement": "Potency", "setting": "[1]", "result": "inconclusive: 21.9 µM [activator, partial curve, poor fit]"}, {"measurement": "Potency", "setting": "[5]", "result": "inconclusive: 21.9 µM [activator, partial curve, poor fit]"}]}, {"smiles": "COc1ccccc1N1CCN(CCCNc2cc(=O)n(C)c(=O)n2C)CC1", "values": [{"measurement": "Potency", "setting": "[1]", "result": "inactive"}, {"measurement": "max response", "setting": "[4]", "result": "inactive: -21.2%"}, {"measurement": "Potency", "setting": "[6]", "result": "inactive"}]}]}
